PubChem BioAssay AID1963576 (National Center for Advancing Translational Sciences (NCATS), 2024)
Among all 46,000 compounds or so, about 60 (0.1%) were called active. About 3% were inconclusive and are not listed. Calls come from the whole dose curve; as a rule, active = well fitted inhibition curve with a large enough effect; inconclusive = small, poorly fitted or top-dose-only effect; inactive = no such curve, though single readings can be large or run the other way. The list shows a part of the results.

Assay: Primary qHTS assay for Inhibitors of ovarian cancer metastasis using an organotypic tumor microenvironment (TME) model.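 For activity change, negative = inhibition: plate controls were DMSO wells for no effect and tomatine positive control wells for full effect.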 Note: nearly all actives have a fitted effect of over 65% in size.
Settings: SKOV3ip1-GFP adhesion/invasion on 3D omental model, fluorescence; series mostly up to 45.8 µM; activity change, negative = inhibition: at the top concentration
Summary of the method: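 qHTS, 4-pt dose (0.36-46 umol/L); SKOV3ip1-GFP, 1,200 cells/well, no FBS; primary omental fibroblast/mesothelial co-culture 48 h pre-grown; 2 h RT + 16 h 37 C; PBS wash, 4% PFA; GFP count 488/509 nm.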

outcome, inactive:
C#CC(C)(CC)NC(=O)c1cnn2c(C(F)F)cc(-c3ccccc3OC)nc12 (stereo unspecified)
CCS(=O)(=O)N1CCc2cc(C(=O)NCCc3ccccc3)ccc21
CCCN1CCN(CCNC(=O)Nc2ccc(OC)c(OC)c2)CC1
CN1C(=O)C2(SCC(=O)N2c2cccc(C(F)(F)F)c2)c2ccccc21 (stereo unspecified)
CCOC(=O)C1CCN(CC(=O)N2CCCc3c2c(=O)oc2ccc(OCc4ccccc4)cc32)CC1
CCN(CCCNC(=O)c1cc2cc3ccc(C)cc3nc2s1)c1ccccc1
CCS(=O)(=O)N1CC(=O)N(c2cccc(Cl)c2C)C(C)(C(=O)NC2CCCCC2)C1 (stereo unspecified)
COc1cccc2c1cc1c(=O)n(CC(=O)NC3CC3)nc(C)n12
O=c1c(=O)n(-c2cccc(Cl)c2)ccn1Cc1cccc(F)c1
COc1cc(-c2nc(Cn3nnc(C(=O)Nc4cc(C)cc(C)c4)c3C)c(C)o2)cc(OC)c1OC

Activity change, negative = inhibition, inactive:
CCOc1ccc(NC(=O)c2cn(C)c(=O)c3cc(OC)c(OC)cc23)cc1 -5.6%
CCOC(=O)C1CCC(CN(Cc2ccc(Cl)cc2)S(=O)(=O)c2ccc(Br)cc2)CC1 (stereo unspecified) 7.17%
CCCN(c1ccccc1CC)S(=O)(=O)c1ccc2c(c1)CC(C)N2C(=O)C1CC1 (stereo unspecified) -5.03%
O=S(=O)(c1cccc(F)c1)N1CCC(c2nc3ccccc3s2)CC1 0.406%
Cc1ccc(NC(=O)c2oc3ccc(S(=O)(=O)N(C)C4CCCCC4)cc3c2C)cc1Cl -1.91%
COc1ccc(-c2nc(CSCC(=O)N3CCN(c4ccc(OC)cc4)CC3)c(C)o2)cc1 16.6%
COCCNC(=O)CCCN1C(=O)c2ccccc2Sc2ncccc21 8.25%
Cc1nnc(SCC(=O)Nc2ccc(Br)cc2)[nH]c1=O -12.3%
COc1cccc(-c2nc(CSCC(=O)NCCc3ccc(Cl)cc3)c(C)o2)c1 0.998%
CC(=O)N1CCc2cc(S(=O)(=O)NC(CC(C)C)C(=O)NCc3ccccc3)ccc21 (stereo unspecified) 1.7%
CCCCN(CCCC)CC(O)Cn1cc(/C=C/C(=O)c2ccccc2)c2ccccc21 (stereo unspecified) -4.06%
CCOc1ccc(NC(=O)C(NC(=O)C2CCC(C)CC2)C(C)C)cc1 (stereo unspecified) -1.11%
C[C@](Cc1c[nH]c2ccccc12)(NC(=O)OC1C2CC3CC(C2)CC1C3)C(=O)NC[C@H](NC(=O)CCC(=O)O)c1ccccc1 (stereo partly specified) 1.99%
CCOC(=O)c1cc(-c2ccccc2)n(CC(=O)N(C)c2ccc(OC)cc2)c1C -9.2%
COc1ccc(C)cc1Nc1nc(-c2cccc(Cl)c2)c2c(n1)-c1ccccc1OC2 -4.93%
Cc1ccc(-c2nc(N3CCN(c4ccccc4Cl)CC3)c3ccccc3n2)cc1 6.27%
